Out of some 94,000 compounds screened, about 4,000 (4.3%) were called active. This list was built around the results that the source calls inconclusive (neither active nor inactive); the mix of calls is not that of the screen. The call rests on the fitted dose curve; in most records, active means well fitted inhibition curve with a large enough effect; inconclusive means small, poorly fitted or top-dose-only effect; inactive means no such curve, though single readings can be large or run the other way. Potencies beside an inconclusive call are fits to weak or partial responses and may not hold up.
Test: Cytotoxic Profiling in NIH 3T3 Cell Line of Diverse Libraries Using Quantitative High-Throughput Screening; further: nearly all actives have a fitted effect of over 55% in size
Details: NIH 3T3 viability, CellTiter-Glo ATP luminescence, 48-72 h; series mostly up to 96.7 µM; activity change, negative = cytotoxicity: at the top concentration
In short: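 First NIH 3T3 cells are plated at 400 cells/well; next compound is pinned in; then plates incubate 48 or 72 hr at 37 °C; finally CellTiter-Glo is added and luminescence read after 10 min.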
On the % scale 0 is the no-effect control and ±100 the full control effect; potency means the concentration at half of the fitted maximal effect; tags describe the fitted curve by direction and shape.

Compound | Potency | activity change, negative = cytotoxicity | outcome
CN1Cc2ccccc2-n2ccnc2C12CCN(C(=O)C1CCOCC1)CC2 | inconclusive: 70.8 µM [inhibitor, partial curve, poor fit] | – | –
COc1ccc(S(=O)(=O)NC[C@H]2C[C@@H]3CCN2C[C@@H]3CN(C)c2ccccc2)cc1 | active: 35.5 µM | – | –
O=C(c1ccccn1)N1C[C@@H]2C[C@H](C1)c1ccc(NS(=O)(=O)c3cccs3)c(=O)n1C2 | – | inactive: -28.4% | –
Cc1nc(-c2ccc(N(C)C)cc2)cc([C@H]2CN3CC[C@H]2C[C@@H]3COC(=O)NC(C)C)n1 | inconclusive: 50.1 µM [inhibitor, partial curve, poor fit] | – | –
O=c1ccc(-c2cccs2)c2n1C[C@H]1C[C@@H]2CN(S(=O)(=O)c2ccccc2)C1 | – | inactive: -8.15% [at 174 µM] | –
O=C(Nc1ccc2n(c1=O)C[C@H]1C[C@@H]2CN(C(=O)NC2CCCCC2)C1)c1ccccn1 | inconclusive: 44.7 µM [inhibitor, partial curve, poor fit] | – | –
Cc1nc(-c2ccc(C(F)(F)F)cc2)cc([C@H]2CN3CC[C@H]2C[C@@H]3CNC(=O)c2ccco2)n1 | active: 25.1 µM | – | –
Cc1ccc(C(=O)N2[C@H]3CC[C@@H]2c2cnc(-c4ccccc4)nc2C3)c(C)c1 | inconclusive: 44.7 µM [inhibitor, partial curve, poor fit] | – | –
CN1Cc2ccccc2-n2ccnc2C12CCN(C(=O)C1(c3ccccc3)CC1)CC2 | – | inactive: -5.24% | –
Cn1cc(CN2CCN3C(=O)N(Cc4ccccn4)C[C@H]3C2)cn1 | – | – | inactive [at 174 µM]
CN(C)C(=O)[C@H]1CN2CCC1C[C@@H]2Cn1cc(-c2ccc(-c3ccccc3)cc2)nn1 (stereo partly drawn) | – | inactive: -19.8% [at 174 µM] | –
CN1C(=O)[C@H]2CN(Cc3ccccc3)C[C@H]2C1=O | – | inactive: 4.87% | –
C#C[C@H]1CN2CC[C@H]1C[C@@H]2CNC(=O)Nc1cccc(C(F)(F)F)c1 | inconclusive: 100 µM [inhibitor, partial curve] | – | –
COc1ccc(C(=O)N2[C@H]3CC[C@@H]2c2cnc(-c4ccccc4)nc2C3)c(OC)c1 | inconclusive: 31.6 µM [inhibitor, partial curve, poor fit] | – | –
CSc1cccc(NC(=O)NC[C@H]2C[C@@H]3CCN2C[C@@H]3CN2CCN(c3ncccn3)CC2)c1 | inconclusive: 89.1 µM [inhibitor, single point] | – | –
O=C(c1cccs1)C1CCCN(Cc2cc3n(n2)CCNC3)C1 (stereo not drawn) | – | – | inactive
Cc1ccc([C@@H]2CN(C(=O)c3snnc3C)[C@@H]3C4CCN(CC4)[C@@H]32)cc1 | – | inactive: -14.7% | –
Cc1nc(-c2cccs2)cc([C@H]2CN3CC[C@H]2C[C@@H]3CNC(=O)C(C)(C)C)n1 | inconclusive: 112 µM [inhibitor, single point] | – | –

— PubChem BioAssay AID1345082 (National Center for Advancing Translational Sciences (NCATS), 2018)
